This assay concerns the target Nonstructural protein 3 (Zika virus) (UniProt A0A024AXB9).
The mark [1] stands for this setting: PRVABC59, Concentration 50.0 uM, Number of replicates 1.0.
[2] abbreviates: PRVABC59, Concentration 15.0 uM, Number of replicates 1.0.
The mark [3] stands for this setting: PRVABC59, Concentration 10.0 uM, Number of replicates 1.0.

Hit rate of the full screen: of about 2,700 compounds, about 160 (5.9%) showed an effect of 50% or more. Some of the results follow.

Here are results for 53 molecules from ChEMBL document CHEMBL5606458, “ASAP - ZIKV NS2B-NS3 protease fluorescence single point” (2024).

By inhibition is commonly meant the relative decrease from the control value, in per cent.

Sequence of UniProt A0A024AXB9 (A0A024AXB9 as listed by the source): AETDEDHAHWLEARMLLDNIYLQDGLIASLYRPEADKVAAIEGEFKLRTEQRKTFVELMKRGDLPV

`O=Cc1ccc(N2CCC(C(=O)Nc3ccc(F)cc3I)CC2)cc1`: the inhibition under setting [1] came to 22.9%. Take `Cc1cc(CO)c2cccc(Cc3cccc(NC(=O)[C@@H]4C[C@@H](O)CN4)c3)c2n1`: the inhibition is, setting by setting: (PRVABC59, Concentration 49.95 uM, Number of replicates 2.0, Standard deviation 2.4532169975140787 %) 5.83%; (PRVABC59, Concentration 99.9 uM, Number of replicates 2.0, Standard deviation 0.6616569684515518 %) 18%. In the case of `COc1ccc(CN(C(=O)C2CCN(c3ccc(C=O)cc3)CC2)C2CC2)cc1`, under setting [1], the inhibition amounted to 21%.

Turning to `c1ccc2cc(CN3CCC[C@H](c4cc5ccccc5[nH]4)C3)ncc2c1`, the inhibition reads like this: (PRVABC59, Concentration 49.5 uM, Number of replicates 2.0, Standard deviation 1.706072311822425 %) 3.03%; (PRVABC59, Concentration 99.01 uM, Number of replicates 2.0, Standard deviation 0.7056744626867533 %) 6.14%; (PRVABC59, Concentration 198.0 uM, Number of replicates 2.0, Standard deviation 1.1747412382803808 %) 11.4%. In the case of `Cc1ccc2nc(NC(=O)C3CCN(c4ccc(C=O)cc4)CC3)sc2c1`, the inhibition under setting [1] is 24.4%. Regarding `O=C(Nc1cc(Cl)cnc1Br)c1cc(Cl)ccc1NS(=O)(=O)c1ccc(Oc2ccccc2Cl)cc1`, under setting [2], the inhibition was 21.9%.

Turning to `O=C(c1cc(Cl)ccc1NS(=O)(=O)c1ccc(Oc2ccccc2Cl)cc1)N(CC1CC1)C1CCCCC1`, the inhibition under setting [2] was 19.7%. For the molecule `O=Cc1ccc(N2CCC(C(=O)NCc3ccccc3)CC2)cc1`, under setting [3], the inhibition came out at 26.5%. Regarding `O=C(Nc1ccc(Oc2ccccc2Cl)cc1)c1cc(Cl)ccc1NS(=O)(=O)c1ccc(Oc2ccccc2Cl)cc1`, the inhibition under setting [2] turned out to be 19.7%. With `c1ccc2c([C@H]3CCN(Cc4ncco4)C3)c[nH]c2c1`, the inhibition came to 0.77% (PRVABC59, Concentration 49.5 uM, Number of replicates 2.0, Standard deviation 0.9858690560056252 %); 0.726% (PRVABC59, Concentration 99.01 uM, Number of replicates 2.0, Standard deviation 4.236123435640349 %); 0.826% (PRVABC59, Concentration 198.0 uM, Number of replicates 2.0, Standard deviation 2.0568340637577314 %). As for `O=Cc1ccc(N2CCC(C(=O)N(C3CCCCC3)C3CCCCC3)CC2)cc1`, the inhibition under setting [1] amounted to 20.8%.

For the molecule `Cc1cc(CO)c2cccc(NC(=O)C3CNC3)c2n1`, under “PRVABC59, Concentration 99.9 uM, Number of replicates 2.0, Standard deviation 0.20878200053144555 %”, the inhibition is -2.49%.

Turning to `CCn1nccc1CN1CCC(c2c[nH]c3cccnc23)CC1`, the inhibition runs as follows: (PRVABC59, Concentration 49.5 uM, Number of replicates 2.0, Standard deviation 0.03120502087528381 %) -2.09%; (PRVABC59, Concentration 99.01 uM, Number of replicates 2.0, Standard deviation 0.6194206000344206 %) -2.07%; (PRVABC59, Concentration 198.0 uM, Number of replicates 2.0, Standard deviation 0.7582830862287184 %) -1.58%. With `Cc1cc(C)cc(OCCN(C)C(=O)C2CCN(c3ccc(C=O)cc3)CC2)c1`, the inhibition under setting [1] came to 23.3%. Consider `Cn1cc(CNC(=O)c2ccccc2C2CCNCC2)cn1`, for which the inhibition reads like this: (PRVABC59, Concentration 49.5 uM, Number of replicates 2.0, Standard deviation 0.030577960063138728 %) 1.58%; (PRVABC59, Concentration 99.01 uM, Number of replicates 2.0, Standard deviation 1.7681266341715607 %) 3.23%; (PRVABC59, Concentration 198.0 uM, Number of replicates 2.0, Standard deviation 3.3204086361130085 %) 7.24%.

As to `O=C(Nc1cnc(Br)c(Cl)n1)c1cc(Cl)ccc1NS(=O)(=O)c1ccc(Oc2ccccc2Cl)cc1`, under setting [2], the inhibition stood at 20.6%. `O=C(O)c1cccc(NC(=O)c2cccc(Br)c2)c1`: the inhibition by setting is: (PRVABC59, Concentration 49.5 uM, Number of replicates 2.0, Standard deviation 2.5009940749301487 %) -0.982%; (PRVABC59, Concentration 99.01 uM, Number of replicates 2.0, Standard deviation 3.0157213975013266 %) 0.926%; (PRVABC59, Concentration 198.0 uM, Number of replicates 2.0, Standard deviation 3.887437163113113 %) 4.65%.

As to `COc1nc(Br)cnc1NC(=O)C1CCN(c2ccc(C=O)cc2)CC1`, under setting [1], the inhibition was 20.5%. `Cc1cnccc1NC(=O)c1cc(C(C)C)n(C)n1`: the inhibition is -0.352% (PRVABC59, Concentration 49.5 uM, Number of replicates 2.0, Standard deviation 2.5246041494100724 %); 2.2% (PRVABC59, Concentration 99.01 uM, Number of replicates 2.0, Standard deviation 5.092735709500862 %); 6.2% (PRVABC59, Concentration 198.0 uM, Number of replicates 2.0, Standard deviation 3.1078747231271233 %). With `CCCCCC(=O)N[C@@H](Cc1ccccc1)C(=O)NCc1cccc(CN)c1`, the inhibition by setting is: (PRVABC59, Concentration 49.5 uM, Number of replicates 2.0, Standard deviation 3.0011927993004544 %) -2.08%; (PRVABC59, Concentration 99.01 uM, Number of replicates 2.0, Standard deviation 2.83307625931173 %) -0.451%; (PRVABC59, Concentration 198.0 uM, Number of replicates 2.0, Standard deviation 3.088364441189248 %) 0.933%. Regarding `Cc1ccc([C@H](CCO)NC(=O)c2cc(Cl)ccc2NS(=O)(=O)c2ccc(Oc3ccccc3Cl)cc2)cc1`, the inhibition under setting [2] amounted to 41.8%. On the same count and under the same terms, to `CC(C)c1nc(CN(C)C(=O)c2cc(Cl)ccc2NS(=O)(=O)c2ccc(Oc3ccccc3Cl)cc2)cs1` belongs 27.9%. Same read-out and setting: to `CN(CCCOc1ccc(Br)cc1)C(=O)c1cc(Cl)ccc1NS(=O)(=O)c1ccc(Oc2ccccc2Cl)cc1` belongs 12.1%. The same measure, in the same setting: to `CC(=O)Nc1ccc(NC(=O)c2cc(Cl)ccc2NS(=O)(=O)c2ccc(Oc3ccccc3Cl)cc2)c(C(F)(F)F)c1` belongs 23.4%. As for `O=Cc1ccc(N2CCC(C(=O)NCc3c(F)ccc(F)c3F)CC2)cc1`, under setting [3], the inhibition was found to be 24.1%. On to `O=C(c1cc(Cl)ccc1NS(=O)(=O)c1ccc(Oc2ccccc2Cl)cc1)N1CCS[C@H]1c1ccc([N+](=O)[O-])cc1`, for which the inhibition under setting [2] was determined as 32.3%.

As for `O=C(c1cc(Cl)ccc1NS(=O)(=O)c1ccc(Oc2ccccc2Cl)cc1)N1CCCC[C@@H]1Cc1ccccc1`, the inhibition under setting [2] worked out at 19%. The same measure, in the same setting: as for `O=C(c1cc(Cl)ccc1NS(=O)(=O)c1ccc(Oc2ccccc2Cl)cc1)N1CCN(C2CCCC2)CC1`, the figure is 19.7%. Consider `O=Cc1ccc(N2CCC(C(=O)Nc3ccc(F)cc3C(F)(F)F)CC2)cc1`, for which, under setting [1], the inhibition was found to be 23.6%. Still for that read-out and setting: to `CCOc1ccc(N2CCN(C(=O)C3CCN(c4ccc(C=O)cc4)CC3)CC2)cc1` belongs 19.3%. Turning to `CN(Cc1ccc(Cl)c(Cl)c1)C(=O)c1cc(Cl)ccc1NS(=O)(=O)c1ccc(Oc2ccccc2Cl)cc1`, the inhibition under setting [2] worked out at 22.4%. `O=Cc1ccc(N2CCC(C(=O)N3CCN(Cc4cc(F)ccc4F)CC3)CC2)cc1`: the inhibition under setting [1] is 23.9%. Turning to `CCN(Cc1ccc(C(F)(F)F)cc1)C(=O)C1CCN(c2ccc(C=O)cc2)CC1`, the inhibition under setting [1] amounted to 21.5%.

As to `O=C(NC(c1ccccc1)(c1ccccc1)c1ccccc1)c1cc(Cl)ccc1NS(=O)(=O)c1ccc(Oc2ccccc2Cl)cc1`, the inhibition under setting [2] amounted to 27.1%. Consider `COc1ccccc1CN(C(=O)c1cc(Cl)ccc1NS(=O)(=O)c1ccc(Oc2ccccc2Cl)cc1)C1CC1`, for which the inhibition under setting [2] is 24.2%.

`O=Cc1ccc(N2CCC(C(=O)N3CCc4ccc([N+](=O)[O-])cc4C3)CC2)cc1`: the inhibition under setting [1] was determined as 29%. With `O=C(N[C@@H](Cc1ccccc1)c1ccccc1)c1cc(Cl)ccc1NS(=O)(=O)c1ccc(Oc2ccccc2Cl)cc1`, the inhibition under setting [2] worked out at 28.3%. In the case of `CCC(CC)N1CCN(C(=O)c2cc(Cl)ccc2NS(=O)(=O)c2ccc(Oc3ccccc3Cl)cc2)CC1`, the inhibition under setting [2] was determined as 19.6%.

Consider `COc1ccc(NC(=O)c2cc(Cl)ccc2NS(=O)(=O)c2ccc(Oc3ccccc3Cl)cc2)c([N+](=O)[O-])c1`, for which the inhibition under setting [2] amounted to 23.8%.

With `O=Cc1ccc(N2CCC(C(=O)Nc3ccc(I)cc3F)CC2)cc1`, the inhibition under setting [1] amounted to 23.8%. With `Cc1cnccc1NC(=O)c1ccc(Cn2cccn2)o1`, the inhibition (PRVABC59, Concentration 49.5 uM, Number of replicates 2.0, Standard deviation 2.869943793578149 %) is -3.37%; the inhibition (PRVABC59, Concentration 99.01 uM, Number of replicates 2.0, Standard deviation 4.685622862463218 %) was -2.42%; the inhibition (PRVABC59, Concentration 198.0 uM, Number of replicates 2.0, Standard deviation 2.8508744783111757 %) is -2.11%. Turning to `Cc1cc(I)ccc1NC(=O)C1CCN(c2ccc(C=O)cc2)CC1`, under setting [1], the inhibition amounted to 13.7%. Take `Cn1cncc1CN1CCC(c2c[nH]c3cccnc23)CC1`: the inhibition (PRVABC59, Concentration 49.5 uM, Number of replicates 2.0, Standard deviation 0.36428498974851165 %) is -6.38%; the inhibition (PRVABC59, Concentration 99.01 uM, Number of replicates 2.0, Standard deviation 0.23301104362860023 %) is -5.77%; the inhibition (PRVABC59, Concentration 198.0 uM, Number of replicates 2.0, Standard deviation 0.16409217976879822 %) is -5.19%. On to `O=C(c1cc(Cl)ccc1NS(=O)(=O)c1ccc(Oc2ccccc2Cl)cc1)N1CCC(=C2c3ccc(Cl)cc3CCc3cccnc32)CC1`, for which the inhibition under setting [2] worked out at 6.18%. For the molecule `CC(C)(C)N(Cc1ccc(Br)cc1)C(=O)C1CCN(c2ccc(C=O)cc2)CC1`, the inhibition under setting [1] was 28.5%.

For `Cc1nn(CC(=O)N[C@H]2CCS(=O)(=O)C2)cc1C1CCNCC1`, the inhibition (PRVABC59, Concentration 49.5 uM, Number of replicates 2.0, Standard deviation 5.344569156352791 %) is -4.22%; the inhibition (PRVABC59, Concentration 99.01 uM, Number of replicates 2.0, Standard deviation 4.944451379615651 %) was -1.67%; the inhibition (PRVABC59, Concentration 198.0 uM, Number of replicates 2.0, Standard deviation 3.753762379719695 %) was 2.58%. As for `CN(C)c1ccccc1CNC(=O)C1CCN(c2ccc(C=O)cc2)CC1`, the inhibition under setting [3] worked out at 25.6%.

As to `Cc1cc(CO)c2cccc(C[C@H](NC(=O)Cc3c[nH]c4ccccc34)C(=O)O)c2n1`, the inhibition is, setting by setting: (PRVABC59, Concentration 49.95 uM, Number of replicates 2.0, Standard deviation 0.6925039676538037 %) -0.44%; (PRVABC59, Concentration 99.9 uM, Number of replicates 2.0, Standard deviation 0.7426851276507157 %) 7.22%. `O=Cc1ccc(N2CCC(C(=O)N3CCN(C(=O)[C@H]4COc5ccccc5O4)CC3)CC2)cc1`: the inhibition under setting [1] was 22.2%. Turning to `CNC(=O)c1ccc2n1CCN(S(=O)(=O)c1cnn(CC3CC3)c1)[C@@H]2C`, the inhibition (PRVABC59, Concentration 49.5 uM, Number of replicates 2.0, Standard deviation 1.040561182661946 %) was -1.94%; the inhibition (PRVABC59, Concentration 99.01 uM, Number of replicates 2.0, Standard deviation 0.20003029173185544 %) was -2.17%; the inhibition (PRVABC59, Concentration 198.0 uM, Number of replicates 2.0, Standard deviation 0.2141737625677472 %) was -2.84%. As to `COc1ccc(NC(C)=O)cc1NC(=O)C1CCN(c2ccc(C=O)cc2)CC1`, the inhibition under setting [1] is 20%.

For the molecule `Cc1cc(CO)c2cccc(Cc3ccccc3NC(=O)c3nc(-c4ccccc4)oc3C(F)(F)F)c2n1`, the inhibition (PRVABC59, Concentration 49.95 uM, Number of replicates 2.0, Standard deviation 1.8373680900098652 %) came out at 5.06% and the inhibition (PRVABC59, Concentration 99.9 uM, Number of replicates 2.0, Standard deviation 1.2469667752869535 %) was 9.26%.

For the molecule `O=C(Nc1ccc(F)cc1Br)c1cc(Cl)ccc1NS(=O)(=O)c1ccc(Oc2ccccc2Cl)cc1`, under setting [2], the inhibition was 25%.
